The supplement of paper PMC8728848
The list shows a part of the results.

Assays:
Experiment in all cases: glycan array binding signal (z-score within array); higher = stronger binding
Details in all cases: glycan notation: IUPAC condensed, linker removed
[1] = biological target: Neu5Gc(a2-8)Neu5Gc(a2-3)Gal(b1-4)GlcNAc(b1-3)Gal(b1-4)GlcNAc
Summary of the method: (§1)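 Arrays were curated from the Consortium for Functional Glycomics database, 3228 in total, and kept only where the protein sequence was available. Binding is expressed as a within-array Z-score. This score was averaged across arrays of the same protein sequence at different concentrations or buffers and across linkers, and negative values can be read as non-binding.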

[2] = biological target: Neu5Gc(a2-8)Neu5Gc(a2-6)Gal(b1-4)GlcNAc
Summary of the method: as §1

[3] = biological target: Neu5Gc(b2-6)Gal(b1-4)GlcNAc
Summary of the method: as §1

B1: AFL5 (Aspergillus fumigatus), Q4WB00 (protein)
chain: MDNFMEMTKKLGHQPELLRLRALDATYDDALEGKLVVAPLDMSEPGKKILDSGTADGTWLRNVRSKQSVPHDYYGSDVEGELFPKDPDGITYFAHSFKDPWPQQYLGFFDLVHIRGSLAGSAPEGPAPVIQNLTTLLKPGGWVQLMEMNAFSPPPNGPAMTDFAKMASEMFTGIGVGDFANNNKSMLEDAGLKNVQEKRVIVNLGKKAKPELHDQSIHGVTGPIVPLTSVARTVKSSFTGEQLDALPARVKEELETEGGQVEMIIAFGQKA
glycan array binding signal (z-score) [1]: -0.34
glycan array binding signal (z-score) [2]: -0.413
glycan array binding signal (z-score) [3]: 0.035
